# Assay results taken from the supplement of paper PMC8728848.
# Some of the results follow.
# B1: SP16663B-bot-321-25-321 (Bacteroides ovatus) (protein)
# chain: DDDDEVTMNSKFYLSTKVFPVDSYEASLSVILKDNSVVVNELQPNYRFVACATERLSKDVKITADSDDNLVSAYNKANDTEYNILPAENYSFTNKTVTIENGESVSGDSIKIELLNVGSLTTEGGYLLPVTISSIEGNNLDALSSNRGVVYLKIQNIHVNVESGQPAEGTLIADRSGWTVKVAPTTRGDAKNLIDGTNSDVARDGGAEYWLTVDIGKVQTLTGIRNKCYASSYSPTAVEVFTSSDGAKWKSIGAVTISKSGTQYIKFSKAVETRYLKYYVKQGPNTVSLTEFDLYAK
# Legend:
# Test in all cases: glycan array binding signal (z-score within array); higher = stronger binding
# Conditions in all cases: glycan notation: IUPAC condensed, linker removed
# [1] = target: Neu5Ac(a2-6)Gal(b1-3)GlcNAc(b1-3)[Gal(b1-4)GlcNAc(b1-6)]Gal(b1-4)Glc
# Outline: (§1)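 Glycan array data were curated from 3228 arrays in the Consortium for Functional Glycomics database and kept only where the protein sequence was available. Glycan names were converted to IUPAC-condensed notation, and columns mapping to the same glycan were averaged. The binding signal is a within-array Z-score, averaged across arrays of the same protein sequence at different concentrations or buffers and across linkers. Negative Z-scores can be read as non-binding.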
# Neu5Ac(a2-6)Gal(b1-4)Glc = target: Neu5Ac(a2-6)Gal(b1-4)Glc
# Outline: as §1
# [2] = target: Neu5Ac(a2-6)Gal(b1-4)GlcNAc
# Outline: as §1
# [3] = target: Neu5Ac(a2-6)Gal(b1-4)GlcNAc(b1-2)Man
# Outline: as §1
# [4] = target: Neu5Ac(a2-6)Gal(b1-4)GlcNAc(b1-2)Man(a1-3)Man(b1-4)GlcNAc(b1-4)GlcNAc
# Outline: as §1
# [5] = target: Neu5Ac(a2-6)Gal(b1-4)GlcNAc(b1-2)Man(a1-3)[Gal(b1-4)GlcNAc(b1-2)Man(a1-6)]Man(b1-4)GlcNAc(b1-4)GlcNAc
# Outline: as §1
# [6] = target: Neu5Ac(a2-6)Gal(b1-4)GlcNAc(b1-2)Man(a1-3)[GlcNAc(b1-2)Man(a1-6)]Man(b1-4)GlcNAc(b1-4)GlcNAc
# Outline: as §1
# [7] = target: Neu5Ac(a2-6)Gal(b1-4)GlcNAc(b1-2)Man(a1-3)[GlcNAc(b1-4)][Neu5Ac(a2-6)Gal(b1-4)GlcNAc(b1-2)Man(a1-6)]Man(b1-4)GlcNAc(b1-4)GlcNAc
# Outline: as §1
# [8] = target: Neu5Ac(a2-6)Gal(b1-4)GlcNAc(b1-2)Man(a1-3)[Man(a1-6)]Man(b1-4)GlcNAc(b1-4)GlcNAc
# Outline: as §1
# [9] = target: Neu5Ac(a2-6)Gal(b1-4)GlcNAc(b1-2)Man(a1-3)[Neu5Ac(a2-3)Gal(b1-4)GlcNAc(b1-2)Man(a1-6)]Man(b1-4)GlcNAc(b1-4)GlcNAc
# Outline: as §1
# [10] = target: Neu5Ac(a2-6)Gal(b1-4)GlcNAc(b1-2)Man(a1-3)[Neu5Ac(a2-6)Gal(b1-4)GlcNAc(b1-2)Man(a1-6)]Man(b1-4)GlcNAc(b1-4)GlcNAc
# Outline: as §1
# [11] = target: Neu5Ac(a2-6)Gal(b1-4)GlcNAc(b1-2)Man(a1-3)[Neu5Ac(a2-6)Gal(b1-4)GlcNAc(b1-2)Man(a1-6)]Man(b1-4)GlcNAc(b1-4)[Fuc(a1-6)]GlcNAc
# Outline: as §1
# [12] = target: Neu5Ac(a2-6)Gal(b1-4)GlcNAc(b1-2)Man(a1-6)Man(b1-4)GlcNAc(b1-4)GlcNAc
# Outline: as §1
# [13] = target: Neu5Ac(a2-6)Gal(b1-4)GlcNAc(b1-2)Man(a1-6)[Gal(b1-4)GlcNAc(b1-2)Man(a1-3)]Man(b1-4)GlcNAc(b1-4)GlcNAc
# Outline: as §1
# [14] = target: Neu5Ac(a2-6)Gal(b1-4)GlcNAc(b1-2)Man(a1-6)[GlcNAc(b1-2)Man(a1-3)]Man(b1-4)GlcNAc(b1-4)GlcNAc
# Outline: as §1
# [15] = target: Neu5Ac(a2-6)Gal(b1-4)GlcNAc(b1-2)Man(a1-6)[Man(a1-3)]Man(b1-4)GlcNAc(b1-4)GlcNAc
# Outline: as §1
# [16] = target: Neu5Ac(a2-6)Gal(b1-4)GlcNAc(b1-2)[Neu5Ac(a2-6)Gal(b1-4)GlcNAc(b1-4)]Man(a1-3)[GlcNAc(b1-4)][Neu5Ac(a2-6)Gal(b1-4)GlcNAc(b1-2)[Neu5Ac(a2-6)Gal(b1-4)GlcNAc(b1-6)]Man(a1-6)]Man(b1-4)GlcNAc(b1-4)GlcNAc
# Outline: as §1
# [17] = target: Neu5Ac(a2-6)Gal(b1-4)GlcNAc(b1-2)[Neu5Ac(a2-6)Gal(b1-4)GlcNAc(b1-4)]Man(a1-3)[GlcNAc(b1-4)][Neu5Ac(a2-6)Gal(b1-4)GlcNAc(b1-4)Man(a1-6)]Man(b1-4)GlcNAc(b1-4)GlcNAc
# Outline: as §1
# [18] = target: Neu5Ac(a2-6)Gal(b1-4)GlcNAc(b1-2)[Neu5Ac(a2-6)Gal(b1-4)GlcNAc(b1-6)]Man(a1-6)[Neu5Ac(a2-6)Gal(b1-4)GlcNAc(b1-2)Man(a1-3)][GlcNAc(b1-4)]Man(b1-4)GlcNAc(b1-4)GlcNAc
# Outline: as §1
# [19] = target: Neu5Ac(a2-6)Gal(b1-4)GlcNAc(b1-3)Gal(b1-3)GlcNAc
# Outline: as §1
# [20] = target: Neu5Ac(a2-6)Gal(b1-4)GlcNAc(b1-3)Gal(b1-4)GlcNAc
# Outline: as §1
# [21] = target: Neu5Ac(a2-6)Gal(b1-4)GlcNAc(b1-3)Gal(b1-4)GlcNAc(b1-2)Man(a1-3)[Neu5Ac(a2-6)Gal(b1-4)GlcNAc(b1-3)Gal(b1-4)GlcNAc(b1-2)Man(a1-6)]GalNAc
# Outline: as §1
# [22] = target: Neu5Ac(a2-6)Gal(b1-4)GlcNAc(b1-3)Gal(b1-4)GlcNAc(b1-3)Gal(b1-4)GlcNAc
# Outline: as §1
# [23] = target: Neu5Ac(a2-6)Gal(b1-4)GlcNAc(b1-3)Gal(b1-4)GlcNAc(b1-3)Gal(b1-4)GlcNAc(b1-2)Man(a1-3)[Neu5Ac(a2-6)Gal(b1-4)GlcNAc(b1-3)Gal(b1-4)GlcNAc(b1-3)Gal(b1-4)GlcNAc(b1-2)Man(a1-6)]GalNAc
# Outline: as §1
# [24] = target: Neu5Ac(a2-6)Gal(b1-4)GlcNAc(b1-3)Gal(b1-4)GlcNAc(b1-3)GalNAc
# Outline: as §1
# [25] = target: Neu5Ac(a2-6)Gal(b1-4)GlcNAc(b1-3)Gal(b1-4)GlcNAc(b1-3)[Neu5Ac(a2-6)Gal(b1-4)GlcNAc(b1-3)Gal(b1-4)GlcNAc(b1-6)]GalNAc
# Outline: as §1
# [26] = target: Neu5Ac(a2-6)Gal(b1-4)GlcNAc(b1-3)Gal(b1-4)GlcNAc(b1-6)[Gal(b1-3)]GalNAc
# Outline: as §1
# [27] = target: Neu5Ac(a2-6)Gal(b1-4)GlcNAc(b1-3)Gal(b1-4)[Fuc(a1-3)]GlcNAc(b1-3)Gal(b1-4)[Fuc(a1-3)]GlcNAc
# Outline: as §1
# [28] = target: Neu5Ac(a2-6)Gal(b1-4)GlcNAc(b1-3)GalNAc
# Outline: as §1
# [29] = target: Neu5Ac(a2-6)Gal(b1-4)GlcNAc(b1-3)[Neu5Ac(a2-6)Gal(b1-4)GlcNAc(b1-6)]GalNAc
# Outline: as §1
# [30] = target: Neu5Ac(a2-6)Gal(b1-4)GlcNAc(b1-6)GalNAc
# Outline: as §1
# [31] = target: Neu5Ac(a2-6)Gal(b1-4)GlcNAc(b1-6)[Gal(b1-3)GlcNAc(b1-3)]Gal(b1-4)Glc
# Outline: as §1
# [32] = target: Neu5Ac(a2-6)Gal(b1-4)GlcNAc(b1-6)[Gal(b1-3)]GalNAc
# Outline: as §1
# [33] = target: Neu5Ac(a2-6)Gal(b1-4)GlcNAc6S
# Outline: as §1
# Neu5Ac(a2-6)GalNAc = target: Neu5Ac(a2-6)GalNAc
# Outline: as §1
# [34] = target: Neu5Ac(a2-6)GalNAc(b1-4)GlcNAc
# Outline: as §1
# [35] = target: Neu5Ac(a2-6)GalNAc(b1-4)GlcNAc6S
# Outline: as §1
# [36] = target: Neu5Ac(a2-6)GlcNAc(b1-4)GlcNAc
# Outline: as §1
binder,measurement,setting,value
B1,glycan array binding signal (z-score),[1],-0.17
same,glycan array binding signal (z-score),Neu5Ac(a2-6)Gal(b1-4)Glc,-0.413
same,glycan array binding signal (z-score),[2],0.201
same,glycan array binding signal (z-score),[3],-0.599
same,glycan array binding signal (z-score),[4],0.36
same,glycan array binding signal (z-score),[5],0.344
same,glycan array binding signal (z-score),[6],-0.119
same,glycan array binding signal (z-score),[7],0.818
same,glycan array binding signal (z-score),[8],-0.071
same,glycan array binding signal (z-score),[9],-0.108
same,glycan array binding signal (z-score),[10],-0.195
same,glycan array binding signal (z-score),[11],0.583
same,glycan array binding signal (z-score),[12],-0.205
same,glycan array binding signal (z-score),[13],-0.492
same,glycan array binding signal (z-score),[14],-0.006
same,glycan array binding signal (z-score),[15],-0.484
same,glycan array binding signal (z-score),[16],-0.333
same,glycan array binding signal (z-score),[17],-0.199
same,glycan array binding signal (z-score),[18],0.493
same,glycan array binding signal (z-score),[19],-0.392
same,glycan array binding signal (z-score),[20],-0.642
same,glycan array binding signal (z-score),[21],-0.533
same,glycan array binding signal (z-score),[22],-0.33
same,glycan array binding signal (z-score),[23],0.133
same,glycan array binding signal (z-score),[24],-0.34
same,glycan array binding signal (z-score),[25],-0.22
same,glycan array binding signal (z-score),[26],-0.259
same,glycan array binding signal (z-score),[27],0.239
same,glycan array binding signal (z-score),[28],0.351
same,glycan array binding signal (z-score),[29],-0.463
same,glycan array binding signal (z-score),[30],0.04
same,glycan array binding signal (z-score),[31],-0.409
same,glycan array binding signal (z-score),[32],0.298
same,glycan array binding signal (z-score),[33],-0.539
same,glycan array binding signal (z-score),Neu5Ac(a2-6)GalNAc,-0.191
same,glycan array binding signal (z-score),[34],-0.786
same,glycan array binding signal (z-score),[35],-0.458
same,glycan array binding signal (z-score),[36],-0.21
